Test results published in PubChem BioAssay AID1508623 (National Center for Advancing Translational Sciences (NCATS), 2021).
The campaign covered roughly 48,000 compounds. About 450 (0.94%) were called active. Inconclusive results (about 19%) are left out. The call rests on the fitted dose curve; in most records, active means well fitted inhibition curve with a large enough effect; inconclusive means small, poorly fitted or top-dose-only effect; inactive means no such curve, though single readings can be large or run the other way. Some of the results follow.

Assay: Primary qHTS for Identification of Small Molecule Inhibitors of Huntingtin Promoter Activity; further: nearly all actives have a fitted effect of over 50% in size
Details: HEK293 HTT promoter firefly luciferase reporter (activity 0% = vehicle and -100% = no light), 24 h; series mostly up to 57.5 µM; activity change, negative = inhibition: at the top concentration
Method in brief: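 Firefly luciferase readout (Dual-Glo, 10 min RT) after 24 h, 37 °C compound exposure (final up to 57.5 uM) of HEK293 reporter cells cultured 24 h beforehand; PTC124 at 50 uM final as control inhibitor; activity scaled vehicle 0%, zero RLU -100%.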
Potency means the concentration at half of the fitted maximal effect.

| Compound | activity change, negative = inhibition | Potency |
| --- | --- | --- |
| CCCCCN(CCCOC)C(=O)C(CCC(=O)O)NC(=O)c1ccc(Cl)c(Cl)c1 (stereo not given) | inactive: 7.67% | – |
| Cc1c(C(=O)N(Cc2ccccc2F)C2CCS(=O)(=O)C2)oc2ccccc12 (stereo not given) | inactive: -10.7% | – |
| Cc1nn(C)c2c1c(C(F)(F)F)cc(=O)n2C(C)C(=O)Nc1ccccc1F (stereo not given) | inactive: -38.3% | – |
| COc1ccc(-c2nnc(SCC(=O)Nc3cccc(C(F)(F)F)c3)s2)cc1 | inactive: -13.7% | – |
| COc1ccc(S(=O)(=O)NCC(c2cccs2)S(=O)(=O)c2ccccc2)cc1OC (stereo not given) | inactive: -16% | – |
| CC(=O)N1CCc2cc(Br)cc(S(=O)(=O)CCC(=O)N3CCN(c4ccc(F)cc4)CC3)c21 | inactive: -6.2% | – |
| COc1cc(/C=C/c2nc(C#N)c(N3CCN(C)CC3)o2)cc(OC)c1OC | inactive: -7.79% | – |
| COc1ccc(NC(=O)COCc2cc(-c3ccc4c(c3)OCO4)on2)cc1 | inactive: -0.766% | – |
| COc1cccc(NS(=O)(=O)c2ccc3c(c2)n(C)c(=O)n3C)c1 | inactive: -32% | – |
| CSc1cccc(NC(=O)C2CCN(c3nc4ccccc4[nH]3)CC2)c1 | inactive: -4.81% | – |
| Cc1c(-c2nc(-c3ccccc3)no2)nnn1-c1ccc(F)c(Cl)c1 | inactive: 43.6% | – |
| CCc1ccc(NC(=O)Cn2c(=O)n(-c3ccc(Cl)c(Cl)c3)c(=O)c3c(C)c(C)sc32)cc1 | inactive: -7.01% | – |
| COc1ccc(Cl)c2sc(NC(=O)c3ccc(S(=O)(=O)N4CCOCC4)cc3)nc12 | inactive: 3.08% | – |
| CCCC(CCC)C(=O)Nc1cc(-c2cn3cccnc3n2)ccc1OC | inactive: -6.67% | – |
| CCc1ccc(N2C(=O)CSC23C(=O)N(Cc2ccc(C)cc2)c2ccccc23)cc1 (stereo not given) | inactive: -19.7% | – |
| COc1ccc(S(=O)(=O)c2c(C)c(NS(=O)(=O)c3ccccc3)cc(C)c2O)cc1 | inactive: -19.8% | – |
| O=C(CSc1nc2c(c(=O)[nH]1)CCC2)Nc1ccccc1C(F)(F)F | inactive: -19.6% | – |
| COc1ccc(Cn2cc(C(=O)c3ccc(C)cc3)c(=O)c3cc(OC)c(OC)cc32)cc1 | inactive: -8.09% | – |
| O=C(NCN1CCOCC1)c1cnccn1 | inactive: -11.5% | – |
| O=C(c1ccc2c(c1)CCCC2)N1CCN(c2nc3c(F)cccc3s2)CC1 | inactive: -9.46% | – |

| Compound | activity change, negative = inhibition | Potency |
| --- | --- | --- |
| COc1cc(C(c2c(C)[nH][nH]c2=O)c2c(C)[nH][nH]c2=O)ccc1OC(=O)c1cccc(C)c1 | inactive: 0.52% | – |
| CCn1cc(C(=O)NCc2ccccc2)c(=O)c2cc(S(=O)(=O)N3CCc4ccccc4C3)ccc21 | inactive: -11.8% | – |
| CCOC(=O)C1CCCCN1S(=O)(=O)c1csc(C(N)=O)c1 (stereo not given) | inactive: -12.7% | – |
| Cc1ccc(C2=CC(c3ccccc3F)n3c(nc4ccccc43)N2)cc1C (stereo not given) | inactive: -1.28% | – |
| CN(C)c1ccc(-n2c(CCC(=O)O)ccc2-c2ccccc2)cc1 | inactive: -6.17% | – |
| COc1ccc(CC(=O)NCc2ccc3c(c2)CCN3C(=O)c2ccccc2)cc1OC | inactive: -11.3% | – |
| COc1ccc(C2=NC(c3ccncc3)=Nc3ccc(Br)cc3N2)cc1 | inactive: -9.71% | – |
| CCn1cc(C(=O)N2CCN(c3ccc(F)cc3)CC2)c(=O)c2cc(S(=O)(=O)N(C)C3CCCCC3)ccc21 | inactive: -7.79% | – |
| CCOC(=O)C1=C(CN2CCCCC2)NC(=O)NC1c1cc(C)ccc1C (stereo not given) | inactive: -17.9% | – |
| COc1ccccc1N1CCN(C(CNC(=O)C(=O)NCc2ccc(C)cc2)c2cccnc2)CC1 (stereo not given) | – | active: 11.2 µM |
| COc1cc(Cl)c(C)cc1NC(=O)c1cc2c(Cl)nc3ccc(C)cc3c2s1 | inactive: -3.96% | – |
| Cc1cccc(-c2nc3c(c(SCc4ccccc4Cl)n2)Cc2c(CO)cnc(C)c2O3)c1 | inactive: -12.9% | – |
| CCOc1ccccc1NC(=O)c1c(NC(=O)C(C)Oc2ccc(Cl)cc2)sc2c1CCCCC2 (stereo not given) | inactive: -19% | – |
| CCNC(=O)c1cnc2c(-c3ccccc3)c(C)nn2c1C | inactive: -9.34% | – |
| CNC(=O)CN1C(=O)c2cccnc2Sc2ccccc21 | inactive: -4.06% | – |
| CC(C)CC1N=C2c3ccccc3N=C(SCC(=O)NCCc3ccc(Cl)cc3)N2C1=O (stereo not given) | inactive: -9.89% | – |
| CC(C)CCn1c(=O)c2sccc2n2c(CCCC(=O)NC(C)C)nnc12 | inactive: -14.6% | – |
| COc1ccc(-c2nc3cc(C)ccn3c2NC(=O)c2ccc(C)c(C)c2)cc1 | inactive: -2.96% | – |
| COc1ccc(-n2c(=O)c3c4c(sc3n(Cc3ccccc3Cl)c2=O)CCC4)c(OC)c1 | inactive: -14.1% | – |
| Cc1cccc(OCC(=O)Nc2ccccc2OCc2cc(=O)n3ccccc3n2)c1 | inactive: 2.48% | – |

| Compound | activity change, negative = inhibition | Potency |
| --- | --- | --- |
| COc1cccc(CNC(=O)CN(C)S(=O)(=O)c2ccc3[nH]c4c(c3c2)CCCC4)c1 | inactive: -18.7% | – |
| CCOc1ccccc1CNC(=O)C1CCCN(c2ncnc3onc(-c4ccc(F)cc4)c23)C1 (stereo not given) | inactive: -5.72% | – |
| COc1cccc(-c2cc(C(F)(F)F)nc(NCCc3ccccc3)n2)c1 | inactive: 14.3% | – |
| Cc1cccc(C)c1-n1ncc(C(=O)Nc2ccc3c(c2)OCO3)c1C1CCN(C(=O)OC(C)(C)C)CC1 | inactive: -11.3% | – |
| COc1ccccc1CCNC(=O)c1ccc2c(c1)c(C)c(C)n2Cc1ccc(Cl)cc1 | inactive: -29.6% | – |
| O=C(O)Cn1c(=O)n(Cc2ccc(Br)cc2F)c(=O)c2ccc(Cl)cc21 | inactive: -2.35% | – |
| Cc1ccc2c(c1)-c1nc(-c3ccc4c(c3)NC(=O)CO4)cc(-c3ccc(F)cc3)c1CO2 | inactive: -12.5% | – |
| Cc1nc2c(C(=O)NCCc3ccc(Cl)cc3)c[nH]n2c(=O)c1Cc1ccc(Cl)cc1 | inactive: -27.4% | – |
| O=C(CSc1nnc(-c2ccc(O)cc2)o1)c1ccc(Br)cc1 | inactive: -14% | – |
| COc1ccccc1C(=O)Nc1c(C(=O)N(C)Cc2ccccc2)sc2nc(C)c(Cl)c(C)c12 | inactive: -29.6% | – |
| COc1ccc(-c2noc(-c3ccc(N4CCN(C)CC4)c([N+](=O)[O-])c3)n2)cc1OC | inactive: 29.4% | – |
| Cc1cc(Br)ccc1NC(=O)C1CCN(S(=O)(=O)c2cccc3nsnc23)CC1 | inactive: -17.2% | – |
| Cc1ccccc1-c1nnc(CN2CCN(c3ccccn3)CC2)o1 | inactive: -27.5% | – |
| CCOC(=O)c1ccc(NC(=O)N2CCOc3ccccc32)cc1 | inactive: 55.4% | – |
| COCCCNC(=O)C(=O)Nc1c2c(nn1-c1cccc(Cl)c1)CSC2 | inactive: -34.3% | – |
| CNC(=O)Cn1cc(S(=O)(=O)Cc2ccccc2F)c2ccccc21 | inactive: -0.576% | – |
| Cc1nn(C(=O)c2ccccc2F)c(C)c1S(=O)(=O)N1CCCCCC1 | inactive: -6.71% | – |
| COc1ccc(-c2oc3ncn4nc(COc5c(C)cccc5C)nc4c3c2-c2ccc(OC)cc2)cc1 | inactive: -6.75% [at 11.5 µM] | – |
| CCOc1ccccc1NC(=O)N1CCc2cc(S(=O)(=O)N3CCC(C)CC3)ccc21 | inactive: -11.6% | – |
| Cc1cccc(NC(=O)c2sc(-n3nc(C)c(Cc4ccc5c(c4)OCO5)c3C)nc2C)c1C | inactive: -8.31% | – |
